Test results from PubChem BioAssay AID485344 (National Center for Advancing Translational Sciences (NCATS), 2010).
About 6,900 (2%) of roughly 340,000 compounds were called active. Cut-off read from the data, not from the text of the source: active = inhibition above about 30%; inactive = below that, where a call was filed. The entries are a selection whose mix differs from that of the whole data set. Where no call is shown, the source filed none.

Target: D(2) dopamine receptor (Homo sapiens) (UniProt P14416)
Sequence of UniProt P14416 (P14416 whole entry, looked up): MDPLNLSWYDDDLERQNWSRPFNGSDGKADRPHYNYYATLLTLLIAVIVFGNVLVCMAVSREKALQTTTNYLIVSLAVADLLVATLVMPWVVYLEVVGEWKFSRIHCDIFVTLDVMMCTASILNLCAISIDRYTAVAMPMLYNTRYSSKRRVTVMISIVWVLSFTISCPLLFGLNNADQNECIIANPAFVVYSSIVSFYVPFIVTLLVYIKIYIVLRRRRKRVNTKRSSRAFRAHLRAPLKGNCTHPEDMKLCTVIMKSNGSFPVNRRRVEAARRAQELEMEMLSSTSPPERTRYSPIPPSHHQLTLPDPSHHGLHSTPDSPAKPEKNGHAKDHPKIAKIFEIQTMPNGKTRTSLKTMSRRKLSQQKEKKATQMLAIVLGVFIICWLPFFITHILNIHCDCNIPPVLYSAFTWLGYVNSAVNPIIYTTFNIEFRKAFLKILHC
Test: HTS Assay for Allosteric Antagonists of the Human D2 Dopamine Receptor: Primary Screen for Antagonists; note: 0% is about no effect
Conditions: HEK293 TREx D2 cells, calcium flux, dopamine EC80; at 10 µM; stronger effect = higher value
How it was run: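 In this primary screen, negative modulation is detected by tracking calcium flux after an EC80 dopamine challenge in inducible HEK293 T-REx D2 cells preexposed to test compound for 180 s.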

| Structure (SMILES) | inhibition |
| --- | --- |
| Cc1ccc(F)cc1NC(=O)CCOc1ccccc1 | active: 31.6% |
| CCCc1cc(=O)[nH]c(Nc2cc(Cl)cc(Cl)c2)n1 | -6.49% |
| COc1ccccc1N1CCN(C(=O)c2nn(C)c3c2CS(=O)(=O)c2ccccc2-3)CC1 | 24.4% |
| Cc1ccc(NC(=O)/C(C#N)=C(\N)C(Cl)(Cl)Cl)nc1 | active: 32.5% |
| CCc1nnc(NC(=O)CSc2nnc(-c3ccncc3)n2Cc2ccccc2)s1 | active: 30.7% |
| N#Cc1nc(/C=C/c2ccc(F)cc2)oc1N1CCCCCC1 | -5.52% |
| COc1cccc(-n2c(SCC(=O)Nc3ccc4c(c3)OCO4)nc3c([nH]c4ccccc43)c2=O)c1 | 21.6% |
| Cc1cc(NC(=O)CCN2CCC(C)CC2)ccc1Br | active: 39.1% |
| CCc1c(C)sc(NC(=O)c2cc3nc(-c4ccc(OC)cc4)cc(C(F)(F)F)n3n2)c1C(=O)OC | 14.8% |
| COc1ccc(-n2nc(C(=O)Nc3cc(C)c(Cl)cc3OC)c3c4ccccc4n(C)c3c2=O)cc1 | -2.55% |
| Cc1ccccc1NC(=O)CSc1nc(-c2cccs2)nc2cc(=O)[nH]n12 | 7.65% |
| COC(=O)c1ccccc1NC(=O)c1ccc2c(c1)CCN2S(=O)(=O)c1ccc(Cl)cc1 | 6.51% |
| Cc1cc(C)c(S(=O)(=O)NCC2CCC(C(=O)NCCc3ccccc3)CC2)c(C)c1 (stereo not given) | 3.3% |
| Cc1ccc(-c2c3c(=O)n(C)c(=O)n(C)c3c3c(-c4cccc(C)c4)nc4ccccc4n23)cc1 | 6.16% |
| Cc1ccc(C)c(Cn2c3ccccc3c3cnn(CC(=O)NC4CCCCCC4)c(=O)c32)c1 | 2.98% |
| O=S(=O)(c1cccc(Cl)c1)n1c(/C=C/c2ccccc2Cl)nc2ccccc21 | -26% |
| Cc1c(Cl)cccc1NC(=O)CSc1nc(=O)[nH]c2c1CCC2 | 1.2% |
| Cc1c2cnn(-c3ccccc3)c(=O)c2c(C)n1CCCC(=O)Nc1cccc(F)c1 | -7.45% |
| O=c1n(Cc2ccccc2)nc2n1-c1cc(Cl)ccc1OC2 | -12% |
| COc1ccc(-c2cc(OC(=O)c3cccc(Cl)c3)c3c(C)oc(C)c3c(=O)c2)cc1OC | -2.32% |
| COc1ccc(CN(Cc2ccco2)C(=O)COc2ccccc2Cl)cc1 | -3.84% |
| COc1ccc(NC(=O)c2cc(S(=O)(=O)N3CCCC(C)C3)cn2C)c(OC)c1 (stereo not given) | -3.65% |
| COc1ccc(NC(=O)CSc2nc3ccccc3n2CC(=O)N(C)C2CCCCC2)cc1 | 7.43% |
| Cc1cc(Cl)ccc1NS(=O)(=O)c1c(C(=O)N2CCCCCC2)c(C)n(C)c1C | -4.88% |

| Structure (SMILES) | inhibition |
| --- | --- |
| COc1cc(C2c3c(-c4cc(C)ccc4O)n[nH]c3C(=O)N2Cc2ccco2)cc(OC)c1OC (stereo not given) | -8.24% |
| CC(C)Oc1ccc(C(=O)Nc2nnc3n2CCS3)cc1 | -7.13% |
| COC(=O)CSc1nc2sc3c(c2c(=O)n1-c1ccccc1)C(C)CCC3 (stereo not given) | -9.35% |
| O=C(Cn1cc(SCc2ccc(Cl)cc2)c2ccccc21)N1CCOCC1 | -12.2% |
| CC(CCc1ccccc1)NCc1ccncc1 (stereo not given) | active: 63.7% |
| CCCc1nn2c(=O)cc(COC(=O)c3cccc(NC(=O)c4ccc(OCC)cc4)c3)nc2s1 | 7.97% |
| Cn1c(=O)c2c(nc(N3CCOCC3)n2Cc2ccccc2F)n(C)c1=O | -14.9% |
| O=C(Nc1ccccc1C(F)(F)F)C1CCN(S(=O)(=O)c2ccccc2)CC1 | 12.8% |
| O=C(CSc1nc2ncccc2o1)Nc1ccc(Cl)cc1F | 2.3% |
| CCOC(=O)c1cc(-c2ccc(F)cc2)n(CCC(=O)Nc2cc(OC)cc(OC)c2)c1C | -10.5% |
| COc1ccccc1N(CC(O)Cn1ccnc1C)S(=O)(=O)c1ccccc1 (stereo not given) | active: 34.3% |
| CCC(=O)Oc1c(Sc2ccc(C)cc2)c(C)nn1-c1ccccc1 | 15.5% |
| COCCCn1c(SCC(=O)Nc2ccc(OC)cc2)nc2c(sc3ccccc32)c1=O | 2.94% |
| O=C(CSc1nc(=O)n(CCN2CCOCC2)c2c1CCC2)Nc1ccc(F)cc1F | -0.262% |
| CC(C)CC(=O)Nc1ccc2nc(SCC(=O)N3CCOCC3)sc2c1 | 1.49% |
| COc1ccc(OC)c(NC(=O)c2cc3cccc(OC)c3oc2=O)c1 | 5.33% |
| CCCNC(=O)c1ccc(Cn2c(SCC(N)=O)nc3ccccc3c2=O)cc1 | 7.36% |
| Cc1ccc(-c2nc3cccc(C)n3c2Nc2ccc3c(c2)OCO3)o1 | -26.7% |
| CCOc1ccccc1C(=O)N1CCc2cc(OC)c(OC)cc2C1COc1ccc(OC)cc1 (stereo not given) | -4.37% |
| Cc1nn(-c2ccccc2)c(OC(=O)c2ccc(Cl)cc2)c1S(=O)(=O)c1ccccc1 | -1.49% |
| COc1ccc(C2=C(C)C(=NCCCN3CCN(c4cc(Cl)ccc4C)CC3)NS2(=O)=O)cc1 | 3.03% |
| Cc1ccc(NC(=O)Cn2cc(S(=O)(=O)Cc3cccc(Cl)c3)c3ccccc32)cc1C | 1.33% |
| COc1ccc(-n2ncc(C(=O)Nc3ccc4c(c3)OCO4)c2C2CCN(C(=O)OC(C)(C)C)CC2)cc1 | -5.16% |
| COc1ccc2oc(-c3ccc(C)c(NC(=O)c4ccc5c(c4)OCCO5)c3)nc2c1 | 6.83% |

| Structure (SMILES) | inhibition |
| --- | --- |
| O=C(NCc1ccccc1Br)c1ccc2c(c1)nc1n2CCOC1 | -3.88% |
| O=C(CCC1N=C2c3ccccc3N=C(SCc3ccccc3F)N2C1=O)NCc1ccccc1 (stereo not given) | 7.41% |
| CCCNC(=O)COCc1cc(-c2ccc(F)cc2)on1 | 9.87% |
| Cc1ccc(CNC(=O)CN2C(=O)CSc3c2c(C)nn3-c2ccccc2)cc1 | -12.5% |
| COc1ccc(NC(=O)c2oc3ccccc3c2NC(=O)Cc2coc3cc(C)ccc23)cc1 | 4.87% |
| COc1ccc(C)cc1NC(=O)CCNC(=O)Cn1ccc2ccccc2c1=O | 6.02% |
| CN1C(=O)Cc2cc(S(=O)(=O)CCC(=O)Nc3ccc(Cl)c(C(F)(F)F)c3)ccc21 | 14% |
| CCOC(=O)c1c(C)[nH]c(CCC(=O)NCc2cccc(C)c2)c1C | 5.63% |
| O=[N+]([O-])c1ccc(C(O)CN2CCN(c3ccccc3)CC2)cc1 (stereo not given) | active: 46.4% |
| Cc1cc(F)ccc1NC(=O)C1CCN(C(=O)c2cnn(-c3ccccc3)c2-n2cccc2)CC1 | -1.68% |
| COC(=O)c1ccccc1NC(=O)c1ccc(-c2nc(COc3ccccc3)c(C)o2)cc1 | -11.1% |
| O=C(CCC1N=C2c3ccccc3N=C(SCc3cccc(F)c3)N2C1=O)NCCc1ccccc1 (stereo not given) | 12.9% |
| Cc1cccc(C)c1NC(=O)Cn1nnc(C(=O)Nc2c(C)cccc2C)c1N | 7.55% |
| CCCCc1nn2c(=O)cc(COC(=O)c3cccc(Cl)c3)nc2s1 | 8.64% |
| CC1(c2ccccc2Cl)NC(=O)N(CC(=O)Nc2ccc(N3CCCCC3)cc2)C1=O (stereo not given) | active: 34.7% |
| CCCCN(CC)CCCNC(=S)Nc1ccc2nc3n(c(=O)c2c1)CCCCC3 | active: 59.7% |
| Cc1cc(OCC(=O)Nc2c(C(=O)c3ccccc3)oc3ccccc23)cc(C)c1Cl | -1.21% |
| CCN1CCN(CCCNC(=O)c2cnn(-c3ccccc3Cl)c2C2CCN(C(=O)OC(C)(C)C)CC2)CC1 | 6.47% |
| CCOC(=O)C1CCCN(c2c(C(=O)c3ccc(OCC)cc3)cnc3ccccc23)C1 (stereo not given) | -1.87% |
| Cc1nn(C)c2c1c(-c1ccccc1)cc(=O)n2Cc1ccccc1C#N | 7.24% |
| O=C1c2oc3ccccc3c(=O)c2C(c2ccc(O)cc2)N1Cc1ccc2c(c1)OCO2 (stereo not given) | -6.68% |
| O=C(c1ccc(Cl)cc1)N1CCC(c2nc3ccccc3o2)CC1 | 7.02% |
| CCOc1ccc(NC(=O)c2c(NCc3ccc(C)o3)sc3c2CCCCC3)cc1 | 1.18% |
| Cc1ccc(CNC(=O)CN2C(=O)CSc3ccc(S(=O)(=O)N(C)C)cc32)cc1 | 6.74% |

| Structure (SMILES) | inhibition |
| --- | --- |
| CCn1cc(C(=O)OCC(=O)Nc2cc(OC)cc(OC)c2)c(=O)c2ccc(C)nc21 | -15.6% |
| CC(=O)n1nc(-c2cccnc2)nc1NCc1ccc(F)cc1 | -2.71% |
| O=C(OCc1cc(=O)n2nc(-c3cccs3)sc2n1)c1ccccc1 | -0.574% |
| COc1ccc(NC(=O)c2c(NCc3cccs3)sc3c2CCCC3)c(OC)c1 | -0.435% |
| COC(=O)C(CCSC)NC(=O)Cn1ncc2c([nH]c3ccccc32)c1=O (stereo not given) | 1.15% |
| CCCOc1ccc(CNC(=O)c2ccc3c(c2)N(Cc2ccccc2)CCS3)cc1 | 3.83% |
| COc1cccc2c1cc1c(=O)n(CC(=O)N3CCN(c4cccc(Cl)c4)CC3)nc(C)n12 | -8.06% |
| O=C(COC(=O)COc1ccccc1)NC12CC3CC(CC(C3)C1)C2 | active: 33.7% |
| CCCCNS(=O)(=O)c1ccc(N2CCCCS2(=O)=O)cc1 | -17% |
| O=C(Nc1ccc2nc(SCCOc3ccccc3)sc2c1)c1ccccc1F | -17.3% |
| CCOC(=O)c1c(C)c(-c2ccccc2)n(CC(=O)Nc2ccc(OCC)cc2)c1C | -1.55% |
| CCc1ccc(N(CC)C(=O)CCn2cnc3onc(-c4ccc(F)cc4)c3c2=O)cc1 | -21.7% |
| CCCNC(=O)Cn1c(=O)/c(=C\c2ccc(-c3ccc([N+](=O)[O-])cc3)o2)s/c1=C\C(=O)C(C)(C)C | active: 53.8% |
| Cc1ccc(-c2ccc(=O)n(CC(=O)NCCc3ccc(Cl)cc3)n2)cc1 | 23.4% |
| COc1ccccc1-c1noc(-c2ccc(N3CCN(C)CC3)c([N+](=O)[O-])c2)n1 | 4.88% |
| Cc1ccc(Cl)cc1N1CCN(C(=O)C2CCN(S(=O)(=O)Cc3ccccc3)CC2)CC1 | 2.58% |
| COc1ccc(NC(=O)NCCN2CCN(c3cccc(Cl)c3)CC2)cc1 | active: 36.1% |
| COc1ccccc1CNC(=O)CCCn1c(=O)c2ccccc2n(Cc2ccc(F)cc2)c1=O | 0.673% |
| Cc1ccc(CCNC(=O)CN(c2cc(C)cc(C)c2)S(=O)(=O)c2c(C)noc2C)cc1 | -15.8% |
| COc1ccccc1Nc1nc(-c2ccc(F)cc2)c2c(n1)-c1ccccc1OC2 | 24.9% |
| COc1cccc(-n2ccn(CC(=O)NCc3ccc(C)cc3)c(=O)c2=O)c1 | 6.14% |
| COc1ccccc1NC(=O)c1c(C)cc(C)nc1SCC(=O)Nc1ccc(C)c(C)c1 | -26.2% |
| Cc1cc(C)c(NS(=O)(=O)c2ccc3c(c2)CC(C)N3C(=O)C2CCC2)c(C)c1 (stereo not given) | 4.53% |
